We go through two molecules from PMC10083269, “Basic characterization of antibodies targeting receptors of the tumor necrosis factor receptor superfamily” (Frontiers in Immunology, 2023).

One experiment addresses T1, 3xVHH(V12t)-Fc(DANA).
T1 construct: also called hexavalent Fc fusion protein variant of the CD40-specific nanobody V12t; source: HEK293T, transient transfection (PEI); not shown: Fc (human IgG1, DANA-mutated), C-terminal, kept
Put plainly: cellular competition binding with a GpL-TNFL fusion protein; HT1080 transfectants (2 x 10^4 per well) incubated with an excess of the GpL-free antibody (10 µg/ml) or VHH Fc fusion protein for 30 minutes, then GpL-TNFL added at a concentration close to its KD (typically 1 - 100 ng/ml); remaining specific binding against TNFR negative HT1080 cells. As to conditions: partners not purified.

The next experiment concerns the target T2, 3xVHH(4H04)-Fc(DANA).
T2 construct: also called hexavalent Fc fusion protein variant of the 41BB-specific nanobody 4H04; source: HEK293T, transient transfection (PEI); not shown: Fc (human IgG1, DANA-mutated), C-terminal, kept
Described as above. As to conditions: partners not purified.

T1 sequence (P25942 21-277): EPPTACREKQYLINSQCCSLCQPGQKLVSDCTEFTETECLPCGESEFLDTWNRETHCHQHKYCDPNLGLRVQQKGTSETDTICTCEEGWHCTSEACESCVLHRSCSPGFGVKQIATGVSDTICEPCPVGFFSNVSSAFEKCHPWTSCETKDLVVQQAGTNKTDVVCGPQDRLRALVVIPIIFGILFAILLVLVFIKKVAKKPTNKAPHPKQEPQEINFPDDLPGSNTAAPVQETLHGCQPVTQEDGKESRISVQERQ
T2 sequence (Q07011 24-255): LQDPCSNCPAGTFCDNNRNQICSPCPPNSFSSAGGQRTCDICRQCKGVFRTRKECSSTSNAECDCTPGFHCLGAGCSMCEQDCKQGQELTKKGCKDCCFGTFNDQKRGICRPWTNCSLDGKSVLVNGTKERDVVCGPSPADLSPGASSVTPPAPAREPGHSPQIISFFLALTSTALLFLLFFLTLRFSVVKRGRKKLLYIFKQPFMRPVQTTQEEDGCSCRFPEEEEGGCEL

B1: CD40 on HT1080-CD40 cells (receptor)
chain: not shown
notes: CD40 expressed on HT1080-CD40 transfectants; also called CD40-expressing cells
For B1, the binding result with 3xVHH(V12t)-Fc(DANA) is listed as “binds”.

B2: 41BB on HT1080-41BB cells (receptor)
chain: not shown
notes: 41BB expressed on HT1080-41BB transfectants; also called 41BB-expressing cells
In the case of B2, the binding result with 3xVHH(4H04)-Fc(DANA) is given as “binds”.
